According to PubChem BioAssay AID686978 (National Center for Advancing Translational Sciences (NCATS), 2013):
Where “and” joins values, the source holds several entries; their conditions need not be identical. Equal entries are not always repeated. Hit rate of the full screen: of about 420,000 compounds, about 64,000 (15%) were called active. The inconclusive results got no clear call from the source; some entries with a clear call stand among them for comparison. The call rests on the fitted dose curve; in most records, active means well fitted inhibition curve with a large enough effect; inconclusive means small, poorly fitted or top-dose-only effect; inactive means flat fitted curve, though single readings scatter. Where the call is inconclusive, the potency comes from a doubtful curve fit.

assay: qHTS for Inhibitors of human tyrosyl-DNA phosphodiesterase 1 (TDP1): qHTS in cells in absence of CPT; conditions: DT40 Tdp1-/- hTDP1 cells, no CPT, ATP luminescence, 48 h; activity change, negative = growth inhibition: at 46.2 µM (top of the series) unless noted; further: nearly all actives have a fitted effect of over 55% in size
In short: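 Camptothecin absent (DMSO only). Human TDP1-complemented DT40 knockout cells, 400 cells/well, 37 °C for minimum 48 hr; ATP measured via CellTiter-Glo, 30 min dark incubation, luminescence.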
On the % scale 0 is the no-effect control and ±100 the full control effect; potency means the concentration at half of the fitted maximal effect; tags describe the fitted curve by direction and shape.

With `Cc1ccc(S(=O)(=O)N2CCOCC2)cc1C(=O)Nc1ccc(N2CCCCCC2)cc1` as the molecule, how does the Potency read?
The Potency was active: 4.61 µM.

For `COCCCn1c(C)cc(C(=O)COC(=O)CCc2nc3ccccc3c(=O)[nH]2)c1C`, which “activity change, negative = growth inhibition” value is on record?
The value was inactive: 2.51%.

With `CCOC(=O)c1cc(-c2ccc(OC)cc2)n(CCC(=O)Nc2cccc(C)c2C)c1C` as the molecule, how does the Potency read?
Its Potency is inconclusive: 23.1 µM [inhibitor, single point].

Which Potency does the source give for `COc1cccc(C(C)(O)c2nc(-c3ccc(OC)nc3)cs2)c1` (stereo not drawn) here?
Its Potency is inconclusive: 14.6 µM [inhibitor, partial curve].

With `CCc1cc(=O)oc2cc3oc(C)c(C)c3cc12` as the molecule, how does the Potency read?
Its Potency is inconclusive: 16.4 µM [inhibitor, single point].

For `Cn1cc(C(N)=O)c2ccccc21`, which “activity change, negative = growth inhibition” value is on record?
The value was inactive: 19.3%.

With `CCCCNC(=S)NNC(=O)c1csc(C)c1C` as the molecule, how does the Potency read?
The Potency was inconclusive: 29.1 µM [inhibitor, single point].

For `Cc1ccc(-c2nnc(NC(=O)c3ccc([N+](=O)[O-])o3)o2)c(C)c1`, which Potency is on record?
Its Potency is active: 13 µM.

With `CC1(C(=O)NC2CCCCCCC2)CCC(=O)N1Cc1cccnc1` (stereo not drawn) as the molecule, how does the “activity change, negative = growth inhibition” value read?
Its value is inactive: -26%.

With `CCc1nc2ccccc2c(C(=O)OCC(=O)N(CCOC)c2c(N)n(Cc3ccccc3)c(=O)[nH]c2=O)c1C` as the molecule, how does the “activity change, negative = growth inhibition” value read?
The value was inactive: -29.8%.

For `O=C(Nc1nc2ccc(F)cc2s1)c1cccc(S(=O)(=O)N2CCc3ccccc32)c1`, which Potency is on record?
Its Potency is inconclusive: 29.1 µM [inhibitor, partial curve].

Which “activity change, negative = growth inhibition” value does the source give for `Cc1ccc(S(=O)(=O)N2CC(O)C[C@H]2C(=O)OCC(=O)Nc2ccc(N3CCOCC3)cc2)cc1C` (stereo partly drawn) here?
Its value is inactive: 14.4%.

For `Cc1cccc2cc(CN(C(=O)c3ccc(C(F)(F)F)cc3)C3CC3)c(N3CCC(O)CC3)nc12`, which Potency is on record?
Its Potency is inconclusive: 16.4 µM [inhibitor, partial curve].

With `CC(C)[C@@H]1O[C@H](CCc2ccccc2)CC2=C1C(=O)OC(C)(C)O2` as the molecule, how does the Potency read?
Its Potency is active: 14.6 µM.

For `CN(CC(=O)Nc1ccccc1Br)C(=O)c1ccccc1OCc1ccc(Cl)cc1`, which Potency is on record?
The Potency was active: 18.4 µM.

With `COc1ccccc1C(=O)NCC(c1ccc(N(C)C)cc1)N1CCc2ccccc21` (stereo not drawn) as the molecule, how does the Potency read?
The Potency was active: 16.4 µM.

Which Potency does the source give for `CC(C)(C)CC(=O)Nc1nnc(CCc2ccccc2)s1` here?
The Potency was inconclusive: 6.51 µM [inhibitor, single point].

Which “activity change, negative = growth inhibition” value does the source give for `CCOC(=O)c1ccc2c(c1)N(CC#N)C(=O)C(C)(C)O2` here?
The value was inactive: -11.9%.

Which “activity change, negative = growth inhibition” value does the source give for `OCC(O)C(O)C(O)CO` (stereo not drawn) here?
Its value is inactive: 5.1%.

Which “activity change, negative = growth inhibition” value does the source give for `O=C(CCNC(=O)c1ccc(Cl)cc1)Nc1c(F)c(F)cc(F)c1F` here?
The value was inactive: -21.1%.

For `COc1cc(OC)cc(C(=O)Nc2ccc3nc4n(c(=O)c3c2)CCCC4)c1`, which activity change, negative = growth inhibition is on record?
The activity change, negative = growth inhibition was inconclusive: -36.1% [inhibitor].

With `Nc1nc(SCc2ccccc2)ns1` as the molecule, how does the “activity change, negative = growth inhibition” value read?
Its value is inactive: 5.57%.

For `COc1cc(OC)c2c(-c3ccccc3)cc(=O)oc2c1C(CCN1CCCC1)c1ccc2c(c1)OCO2` (stereo not drawn), which Potency is on record?
Its Potency is inconclusive: 18.4 µM [inhibitor, single point].

Which Potency does the source give for `CCN(CC)S(=O)(=O)c1ccc(Cl)c(NC(=O)c2ccc(C#N)cc2)c1` here?
Its Potency is inconclusive: 20.6 µM [inhibitor, partial curve, poor fit].

With `CN(Cc1ccccc1)S(=O)(=O)c1ccc(NC(=O)c2ccccc2C(=O)O)cc1` as the molecule, how does the “activity change, negative = growth inhibition” value read?
The value was inactive: -3.09%.

Which Potency does the source give for `Cc1ccccc1Cn1nc(C)c(NC(=O)c2cc(-c3ccco3)on2)c1C` here?
Its Potency is inconclusive: 7.31 µM [inhibitor, full curve, poor fit].

With `Cc1nc2ccccc2c(=O)n1NC(=O)c1ccco1` as the molecule, how does the “activity change, negative = growth inhibition” value read?
Its value is inactive: -4.74%.

With `CN(C)C(CNC(=O)c1cccc(S(=O)(=O)N2CC3(C)CC2CC(C)(C)C3)c1)c1ccco1` (stereo not drawn) as the molecule, how does the Potency read?
Its Potency is active: 16.4 µM.

Which Potency does the source give for `CC1(C)CC(=O)C=C(c2ccc(COC(=O)/C=C/c3ccccc3)cc2)C1=O` here?
The Potency was active: 20.6 µM.

With `COc1ccc(C(=O)OCc2c(C)noc2C)cc1` as the molecule, how does the “activity change, negative = growth inhibition” value read?
Its value is inactive: 8.35%.

With `O=C(c1cnc2sccn2c1=O)N1CCN(c2ccccc2Cl)CC1` as the molecule, how does the Potency read?
The Potency was inconclusive: 0.0164 µM [inhibitor, full curve, poor fit].

With `Cc1cc(C)c(S(C)(=O)=O)c(N(C)N)n1` as the molecule, how does the Potency read?
The Potency was inconclusive: 0.13 µM [inhibitor, full curve].

Which “activity change, negative = growth inhibition” value does the source give for `CC(Sc1nncn1C)C(=O)Nc1cc(C(F)(F)F)ccc1N1CCOCC1` (stereo not drawn) here?
The value was inactive: -4.89%.

Which Potency does the source give for `CCOC(=O)/C(=C\c1ccc(N2CCC(c3ccccc3)=N2)cc1)C(C)=O` here?
Its Potency is inconclusive: 16.4 µM [inhibitor, single point].

For `CCc1ccc(NC(=O)Cn2nc(C(F)(F)F)c3c2CCCC3)cc1`, which Potency is on record?
The Potency was inconclusive: 29.1 µM [inhibitor, single point].

With `COC(=O)c1csc2c(C(F)(F)F)cc(N3CCN(C(=O)Nc4ccccc4)CC3)nc12` as the molecule, how does the Potency read?
The Potency was inconclusive: 2.31 µM [inhibitor, full curve, poor fit].

For `CCOC(=O)C1=C(C)N=c2sc(=Cc3cc(Cl)c(OCC(=O)O)c(Cl)c3)c(=O)n2C1c1cccc(OC)c1` (stereo not drawn), which Potency is on record?
Its Potency is inconclusive: 29.1 µM [inhibitor, single point].

With `C[C@@H]1CN([C@H](C)CO)S(=O)(=O)c2ccc(C#CC3CCCCC3)cc2O[C@H]1CN(C)C(=O)Cc1ccncc1` as the molecule, how does the Potency read?
The Potency was inconclusive: 18.4 µM [inhibitor, single point].

For `Cc1[nH]c2ccccc2c1/C=C/C(=O)c1ccccc1`, which Potency is on record?
Its Potency is inconclusive: 29.1 µM [inhibitor, single point].

For `CN(CC(=O)Nc1ccc(N2CCOCC2)cc1)CC(=O)Nc1ccc(C(F)(F)F)cc1`, which Potency is on record?
The Potency was inconclusive: 16.4 µM [inhibitor, single point].

Which “activity change, negative = growth inhibition” value does the source give for `CC(C)(CC1(C)NC(=O)NC1=O)OCc1ccccc1` (stereo not drawn) here?
Its value is inactive: 7.03%.

For `CCOC(=O)Cn1nc(/C=C/c2ccc(C)cc2)ccc1=O`, which Potency is on record?
The Potency was active: 23.1 µM.

With `CC1(c2ccc3ccccc3c2)NC(=O)N(CC(=O)NCc2cccs2)C1=O` (stereo not drawn) as the molecule, how does the Potency read?
Its Potency is inconclusive: 11.6 µM [inhibitor, single point].

With `Cc1ccc(S(=O)(=O)N2CCC(NC(=O)C3CCCCC3)CC2)cc1` as the molecule, how does the “activity change, negative = growth inhibition” value read?
Its value is inactive: -13.6%.

Which Potency does the source give for `CSc1nc(N)nc2c1ncn2CC(=O)N[C@H](CO)Cc1c[nH]c2ccccc12` here?
The Potency was inconclusive: 0.58 µM [inhibitor, single point].

With `CCOc1cc(S(=O)(=O)n2nc(C)cc2C)ccc1Br` as the molecule, how does the Potency read?
The Potency was inconclusive: 29.1 µM [inhibitor, single point].

Which “activity change, negative = growth inhibition” value does the source give for `CC(=O)c1ccc(N2CCN(C(=O)c3ccc4ccccc4n3)CC2)cc1` here?
Its value is inactive: -0.305%.

Which activity change, negative = growth inhibition does the source give for `O=C(Cn1ncn2cccc2c1=O)NCc1cccc(Br)c1` here?
The activity change, negative = growth inhibition was inconclusive: -31.2% [inhibitor].

With `CC(C)(C)c1ccc(OCC(=O)NCc2ccco2)cc1` as the molecule, how does the activity change, negative = growth inhibition read?
The activity change, negative = growth inhibition was inconclusive: -33% [inhibitor].

With `O=C1NCCNC(=O)c2ccccc2OCCOc2ccccc21` as the molecule, how does the Potency read?
The Potency was inconclusive: 18.4 µM [inhibitor, single point].

With `Cc1cccc(Cn2c(N3CCCCC3C)nc3c2c(=O)[nH]c(=O)n3C)c1` (stereo not drawn) as the molecule, how does the Potency read?
Its Potency is inconclusive: 29.1 µM [inhibitor, single point].

With `COc1ccccc1NS(=O)(=O)c1cc(NC(=O)c2ccncc2)ccc1N1CCCC1` as the molecule, how does the Potency read?
The Potency was active: 20.6 µM.

For `O=C1CN(C(=O)CSc2nnnn2C2CC2)c2ccccc2N1`, which “activity change, negative = growth inhibition” value is on record?
The value was inactive: 2.46%.

With `CC(=O)c1cccc(N/C=C\C(=O)c2ccc(C)cc2)c1` as the molecule, how does the Potency read?
Its Potency is inconclusive: 16.4 µM [inhibitor, single point].

For `Cc1cc(N2CCN(C(=O)c3ccco3)CC2)n2nc(-c3cccc(F)c3)cc2n1`, which Potency is on record?
The Potency was inconclusive: 20.6 µM [inhibitor, single point].

With `c1ccc2c(c1)oc1c(-c3cccc4nccn34)cccc12` as the molecule, how does the Potency read?
The Potency was inconclusive: 23.1 µM [inhibitor, single point].

For `CCc1ccc(Nc2nc(C)cc(C)n2)cc1`, which Potency is on record?
Its Potency is inconclusive: 29.1 µM [inhibitor, single point].

For `CCCNC(=O)Cn1nc(-c2ccc(C)cc2)c2cnc3ccc(CC)cc3c21`, which “activity change, negative = growth inhibition” value is on record?
Its value is inactive: -7.98%.

Which “activity change, negative = growth inhibition” value does the source give for `CC(C)C(=O)N1CCCC1(C)C(=O)Nc1ccc2c(c1)OCO2` (stereo not drawn) here?
The value was inactive: 1.42%.

With `CCc1noc(C)c1C(=O)Nc1nc(-c2ccc(Cl)cc2Cl)cs1` as the molecule, how does the Potency read?
Its Potency is active: 18.4 µM.

For `CCC(=O)N1CCN(c2ccccc2NC(=O)COc2ccccc2Cl)CC1`, which Potency is on record?
The Potency was inconclusive: 18.4 µM [inhibitor, single point].

With `CN1CCCN(C(=O)C2CCCCC2)CC1` as the molecule, how does the “activity change, negative = growth inhibition” value read?
Its value is inactive: 8.41%.

For `COc1ccc(C2C=C(c3ccccc3)Nc3nnnn32)cc1` (stereo not drawn), which Potency is on record?
The Potency was inconclusive: 8.2 µM [inhibitor, partial curve].

With `CCCc1nc2ccccc2c(C(=O)OCC(=O)NCc2ccc3c(c2)OCO3)c1CC` as the molecule, how does the Potency read?
Its Potency is inconclusive: 25.9 µM [inhibitor, single point].

Which Potency does the source give for `COc1ccccc1NC(=S)N(Cc1ccco1)Cc1cc2cccc(C)c2[nH]c1=O` here?
Its Potency is inconclusive: 20.6 µM [inhibitor, single point].

Which “activity change, negative = growth inhibition” value does the source give for `Cc1cc(CSc2ccc(Cl)cc2)ccc1N` here?
Its value is inactive: -14.5%.

Which Potency does the source give for `Cc1nn(Cc2ccc(Cl)cc2Cl)c(Cl)c1/C=C/C(=O)OCC(=O)NCC(F)(F)F` here?
Its Potency is active: 20.6 µM.

For `CCn1c(C)c(C)c2cc(C(=O)N3CCN(c4ccccc4)CC3)ccc21`, which Potency is on record?
Its Potency is “inactive and inconclusive: 14.6 µM [inhibitor, partial curve]”.

For `CCOc1ccc(N(CC(=O)NCc2ccccc2)S(=O)(=O)c2ccc(C)cc2)cc1`, which Potency is on record?
The Potency was inconclusive: 29.1 µM [inhibitor, single point].

Which Potency does the source give for `C[C@@H]1CN([C@@H](C)CO)C(=O)c2cc(NC(=O)Nc3ccccc3)ccc2O[C@H]1CN(C)C(=O)Nc1cccc2ccccc12` here?
The Potency was active: 18.4 µM.

For `C=CCn1c(SCC(=O)Nc2cc(C)on2)nc2sc(CC)cc2c1=O`, which Potency is on record?
The Potency was inconclusive: 4.61 µM [inhibitor, full curve].

For `CCCCOC(=O)C1=C(C)Nc2nnnn2C1c1ccc(OC)c(OC)c1OC` (stereo not drawn), which Potency is on record?
Its Potency is inconclusive: 29.1 µM [inhibitor, partial curve].

Which Potency does the source give for `Nc1ccccc1SC(CC(=O)c1ccccc1)c1cccc([N+](=O)[O-])c1` (stereo not drawn) here?
The Potency was active: 5.17 µM.
